Measured values taken from US20140378664A1 (published 2014).
Each block holds one binder with its values, some of them ahead of it.

Legend:
Experiment in all cases: SPR
c-MET (RnD systems) = target: T1, c-MET (RnD systems) (UniProt P08581 25-932)
T1 chain: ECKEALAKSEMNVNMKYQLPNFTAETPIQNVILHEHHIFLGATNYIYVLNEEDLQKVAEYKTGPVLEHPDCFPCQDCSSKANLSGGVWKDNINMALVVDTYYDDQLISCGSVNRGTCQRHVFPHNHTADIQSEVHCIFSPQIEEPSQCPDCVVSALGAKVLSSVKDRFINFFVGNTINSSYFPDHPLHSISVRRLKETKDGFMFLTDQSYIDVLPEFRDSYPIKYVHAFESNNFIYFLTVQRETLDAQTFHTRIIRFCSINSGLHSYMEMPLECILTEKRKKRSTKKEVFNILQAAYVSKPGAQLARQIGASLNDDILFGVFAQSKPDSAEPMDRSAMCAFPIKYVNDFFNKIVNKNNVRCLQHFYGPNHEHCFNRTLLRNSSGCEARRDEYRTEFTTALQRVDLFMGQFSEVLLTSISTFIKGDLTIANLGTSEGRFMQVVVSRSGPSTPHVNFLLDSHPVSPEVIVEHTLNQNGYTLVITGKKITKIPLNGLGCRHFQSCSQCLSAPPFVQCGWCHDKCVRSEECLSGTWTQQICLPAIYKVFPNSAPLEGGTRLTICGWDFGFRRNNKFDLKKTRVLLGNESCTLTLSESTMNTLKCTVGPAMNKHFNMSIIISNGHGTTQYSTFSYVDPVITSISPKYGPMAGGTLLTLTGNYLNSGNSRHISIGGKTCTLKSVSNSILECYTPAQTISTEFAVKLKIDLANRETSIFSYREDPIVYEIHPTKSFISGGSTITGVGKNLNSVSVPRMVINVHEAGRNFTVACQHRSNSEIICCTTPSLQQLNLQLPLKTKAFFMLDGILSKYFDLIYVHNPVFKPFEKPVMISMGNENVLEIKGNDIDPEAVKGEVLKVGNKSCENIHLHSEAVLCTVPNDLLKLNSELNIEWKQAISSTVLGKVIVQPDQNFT

[1] = target: T2, Human c-Met (Sino Biologicals) (human, UniProt P08581 25-932)
T2 chain: T1 chain

[2] = target: human EGFR extracellular domain (Prospec) (human, UniProt P00533 in part)

Kd (c-MET (RnD systems)): < 0.01 nM
B1: M×M, anti-cMet monospecific bivalent Ab of Example 4 (antibody)
chain: EVQLVESGGGLVQPGGSLRLSCAASGFTFTDYYMSWVRQAPGKGLEWLGFIRNKANGYTTEYSASVKGRFTISRDNSKNTLYLQMNSLRAEDTAVYYCARDNWFAYWGQGTLVTVSSGLGGLGGGGSGGGGSGGSSGVGSDIQMTQSPSSLSASVGDRVTITCKSSQSLLASGNQNNYLAWHQQKPGKAPKMLIIWASTRVSGVPSRFSGSGSGTDFTLTISSLQPEDFATYYCQQSYSRPYTFGQGTKVEIKR[human IgG1 Fc left out here]

Kd [1]: 0.000179 nM
B2: M×M, anti-c-Met single antibody of Example 2 (antibody)
chain: B1 chain

Kd [2]: 6.8 nM
B3: E×E, anti-EGFR single antibody of Example 2 (antibody)
chain: QVQLVQSGAEVKKPGSSVKVSCKASGFTFTDYKIHWVRQAPGQGLEWMGYFNPNSGYSTYAQKFQGRVTITADKSTSTAYMELSSLRSEDTAVYYCARLSPGGYYVMDAWGQGTTVTVSSGGGGSSGGGSGGGGSDIQMTQSPSSLSASVGDRVTITCRASQGINNYLNWYQQKPGKAPKRLIYNTNNLQTGVPSRFSGSGSGTEFTLTISSLQPEDFATYYCLQHNSFPTFGQGTKLEIKRT[human IgG1 Fc left out here]
